The results in this text go back to the supplement of paper PMC10037445.

The subject of experiment [1] is RAW-Dual. The experiment in a line: NF-kB SEAP reporter activity, fold change vs agonist alone; cytotoxicity flag (confluency mask): not cytotoxic; higher = enhanced NF-kB activity. The method in brief: (§1)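 Library stock was pin-tooled at 50 nL into 384-well plates of RAW-Dual macrophages (50,000 cells/well, DMEM), followed 1 h later by a PRR agonist, and the cells were kept at 37 °C, 5% CO2. Supernatant collected after 20 hours was read for IRF by QuantiLuc luminescence and for NF-κB by QuantiBlue absorbance at 620 nm. Reporter activity is fold change over agonist-alone wells, and a well counted as cytotoxic when its IncuCyte confluency was below 70% of agonist controls in both mask sets.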

Experiment [2] relates to RAW-Dual. The experiment can be described thus: NF-kB SEAP reporter activity, fold change vs agonist alone; higher = enhanced NF-kB activity. The following applies: library stock concentration (final ~1000-fold dilution): 10 mM. The method in brief: as §1
The subject of experiment [3] is RAW-Dual. The experiment can be described thus: NF-kB SEAP reporter activity, fold change vs agonist alone; cytotoxicity flag (confluency mask): cytotoxic (confluency <70% of control); higher = enhanced NF-kB activity. The method in brief: as §1
Setting [4] is: agonist: ODN 1826 (TLR9) 0.5 ug/mL.
[5] abbreviates: agonist: Pam2CSK4 (TLR2/6) 0.1 ug/mL.
The mark [6] stands for this setting: agonist: Pam3CSK4 (TLR2/1) 0.1 ug/mL.
Setting [7] is: cytotoxicity flag (confluency mask): not cytotoxic, agonist: Imiquimod (TLR7) […].
The mark [8] stands for this setting: cytotoxicity flag (confluency mask): not cytotoxic, agonist: MPLA (TLR4) […].

In all, about 2,900 compounds were measured (“NF-kB SEAP reporter activity, fold change vs agonist alone”: median about 0.99, highest 2% from about 2.6 on). The list shows a part of the results.

As to `CCC1(O)C(=O)OCc2c1cc1n(c2=O)Cc2cc3c(CN(C)C)c(O)ccc3nc2-1` (stereo not drawn) (library stock concentration (final ~1000-fold dilution): 10 mM), the “NF-kB SEAP reporter activity” value in experiment [1] (agonist: LPS (TLR4) 0.1 ug/mL) was 2.01; in experiment [1] (setting [4]) it was 1.59; in experiment [1] (setting [5]), 0.849; in experiment [1] (setting [6]), 1.27.
As to `CCC1(O)C(=O)OCc2c1cc1n(c2=O)Cc2cc3c(CN(C)C)c(O)ccc3nc2-1` (stereo not drawn), the “NF-kB SEAP reporter activity” value in experiment [2] (setting [7]) came out at 1.46; in experiment [2] (setting [8]), 1.93.
For the compound `Nc1ncnc2c1C(=O)N(c1ccc(C3CCC(CC(=O)O)CC3)cc1)CCO2` (stereo not drawn) (library stock concentration (final ~1000-fold dilution): 10 mM), the “NF-kB SEAP reporter activity” value in experiment [1] (agonist: LPS (TLR4) 0.1 ug/mL) was determined as 0.948; in experiment [1] (setting [4]), 1.05; in experiment [1] (setting [5]) it was 1.11; in experiment [1] (setting [6]), 1.32.
Regarding `Nc1ncnc2c1C(=O)N(c1ccc(C3CCC(CC(=O)O)CC3)cc1)CCO2` (stereo not drawn), the results for the “NF-kB SEAP reporter activity” value in experiment [2] (setting [7]) and in experiment [2] (setting [8]) were 0.994 and 1.18, respectively.
On to `NC(CO)(CO)CO` (library stock concentration (final ~1000-fold dilution): 10 mM), for which the “NF-kB SEAP reporter activity” value in experiment [1] (agonist: LPS (TLR4) 0.1 ug/mL) came to 1.11; in experiment [1] (setting [4]) it was 0.933; in experiment [1] (setting [5]), 1.02; in experiment [1] (setting [6]) it was 1.05.
As for `NC(CO)(CO)CO`, the “NF-kB SEAP reporter activity” value in experiment [2] (setting [7]) came out at 0.912; in experiment [2] (setting [8]), 1.03.
In the case of `O=C(CCCCCCNC(=O)c1cnc(N(c2ccccc2)c2ccccc2)nc1)NO`, the “NF-kB SEAP reporter activity” value in experiment [2] (cytotoxicity flag (confluency mask): cytotoxic (confluency <70% of control), agonist: Imiquimod (TLR7) […]) amounted to 1.12; in experiment [2] (cytotoxicity flag (confluency mask): cytotoxic (confluency <70% of control), agonist: MPLA (TLR4) […]), 2.14.
Regarding `O=C(CCCCCCNC(=O)c1cnc(N(c2ccccc2)c2ccccc2)nc1)NO` (library stock concentration (final ~1000-fold dilution): 10 mM), the “NF-kB SEAP reporter activity” value turned out to be 4.12 in experiment [3] (agonist: LPS (TLR4) 0.1 ug/mL), 1.3 in experiment [3] (setting [4]), 0.825 in experiment [3] (setting [5]) and 1.08 in experiment [3] (setting [6]).
For the compound `C/C1=C/CC[C@@]2(C)O[C@@H]2[C@H]2OC(=O)[C@H](CN(C)C)[C@@H]2CC1` (library stock concentration (final ~1000-fold dilution): 10 mM), the “NF-kB SEAP reporter activity” value in experiment [1] (agonist: LPS (TLR4) 0.1 ug/mL) was determined as 0.302; in experiment [1] (setting [4]), 0.185; in experiment [1] (setting [5]) it was 0.197; in experiment [1] (setting [6]) it was 0.151.
Consider `C/C1=C/CC[C@@]2(C)O[C@@H]2[C@H]2OC(=O)[C@H](CN(C)C)[C@@H]2CC1`, for which the “NF-kB SEAP reporter activity” value in experiment [2] (setting [7]) was found to be 0.137; in experiment [2] (setting [8]), 0.246.
`O.S=c1nc[nH]c2nc[nH]c12` (library stock concentration (final ~1000-fold dilution): 10 mM): the “NF-kB SEAP reporter activity” value in experiment [1] (agonist: LPS (TLR4) 0.1 ug/mL) was determined as 1.05; in experiment [1] (setting [4]), 0.808; in experiment [1] (setting [5]), 0.594; in experiment [1] (setting [6]), 0.684.
On to `O.S=c1nc[nH]c2nc[nH]c12`, for which the “NF-kB SEAP reporter activity” value stood at 0.752 in experiment [2] (setting [7]) and 0.963 in experiment [2] (setting [8]).
For `CCOC(=O)C1OC1C(=O)NC(CC(C)C)C(=O)NCCC(C)C` (stereo not drawn), the “NF-kB SEAP reporter activity” value in experiment [2] (setting [7]) amounted to 0.405; in experiment [2] (setting [8]), 0.838.
For the compound `CCOC(=O)C1OC1C(=O)NC(CC(C)C)C(=O)NCCC(C)C` (stereo not drawn) (library stock concentration (final ~1000-fold dilution): 10 mM), the “NF-kB SEAP reporter activity” value in experiment [1] (agonist: LPS (TLR4) 0.1 ug/mL) was 0.608; in experiment [1] (setting [4]), 0.892; in experiment [1] (setting [5]), 0.839; in experiment [1] (setting [6]), 0.79.
For `Cl.N=C(N)NC(=O)c1nc(Cl)c(N)nc1N`, the results for the “NF-kB SEAP reporter activity” value in experiment [2] (setting [7]) and in experiment [2] (setting [8]) were 0.88 and 0.876, respectively.
`Cl.N=C(N)NC(=O)c1nc(Cl)c(N)nc1N` (library stock concentration (final ~1000-fold dilution): 10 mM): the “NF-kB SEAP reporter activity” value in experiment [1] (agonist: LPS (TLR4) 0.1 ug/mL) was 0.944; in experiment [1] (setting [4]), 0.967; in experiment [1] (setting [5]), 0.889; in experiment [1] (setting [6]), 0.92.
The matching figures for `O=C(NCCS(=O)(=O)c1ccc(C(F)(F)F)cn1)c1ccc(Cl)cc1` (library stock concentration (final ~1000-fold dilution): 10 mM): 1.09, 0.846, 1.11 and 1.02.
Regarding `O=C(NCCS(=O)(=O)c1ccc(C(F)(F)F)cn1)c1ccc(Cl)cc1`, the “NF-kB SEAP reporter activity” value turned out to be 0.88 in experiment [2] (setting [7]) and 0.923 in experiment [2] (setting [8]).
Take `CC(C)CC(=O)Nc1n[nH]c2c1CN(C(=O)C1CCN(C)CC1)C2(C)C` (library stock concentration (final ~1000-fold dilution): 10 mM): the “NF-kB SEAP reporter activity” value amounted to 0.87 in experiment [1] (agonist: LPS (TLR4) 0.1 ug/mL), 2.42 in experiment [1] (setting [4]), 0.981 in experiment [1] (setting [5]) and 1.32 in experiment [1] (setting [6]).
Consider `CC(C)CC(=O)Nc1n[nH]c2c1CN(C(=O)C1CCN(C)CC1)C2(C)C`, for which the “NF-kB SEAP reporter activity” value stood at 2.08 in experiment [2] (setting [7]) and 1.01 in experiment [2] (setting [8]).
Turning to `CC(C)=CCC[C@](C)(O)[C@@H]1CC[C@]2(C)C3CCC4C(C)(C)C(O[C@@H]5O[C@H](CO)[C@@H](O)[C@H](O)[C@H]5O[C@@H]5O[C@H](CO)[C@@H](O)[C@H](CO)[C@H]5O)CC[C@]4(C)C3C[C@H](O)[C@H]12` (stereo partly drawn) (library stock concentration (final ~1000-fold dilution): 10 mM), the “NF-kB SEAP reporter activity” value in experiment [1] (agonist: LPS (TLR4) 0.1 ug/mL) turned out to be 1.2; in experiment [1] (setting [4]), 0.581; in experiment [1] (setting [5]), 0.971; in experiment [1] (setting [6]), 0.922.
Take `CC(C)=CCC[C@](C)(O)[C@@H]1CC[C@]2(C)C3CCC4C(C)(C)C(O[C@@H]5O[C@H](CO)[C@@H](O)[C@H](O)[C@H]5O[C@@H]5O[C@H](CO)[C@@H](O)[C@H](CO)[C@H]5O)CC[C@]4(C)C3C[C@H](O)[C@H]12` (stereo partly drawn): the entries for the “NF-kB SEAP reporter activity” value in experiment [2] (setting [7]) and in experiment [2] (setting [8]) were 1.01 and 1.17, respectively.
The matching figures for `Cc1ccc(C(=O)N(CCCN)C(c2oc3cc(Cl)ccc3c(=O)c2Cc2ccccc2)C(C)C)cc1.Cl` (stereo not drawn): 0.905 and 1.03.
For the compound `Cc1ccc(C(=O)N(CCCN)C(c2oc3cc(Cl)ccc3c(=O)c2Cc2ccccc2)C(C)C)cc1.Cl` (stereo not drawn) (library stock concentration (final ~1000-fold dilution): 10 mM), the “NF-kB SEAP reporter activity” value in experiment [1] (agonist: LPS (TLR4) 0.1 ug/mL) was 0.189; in experiment [1] (setting [4]), 0.953; in experiment [1] (setting [5]), 0.344; in experiment [1] (setting [6]), 0.73.
Regarding `Cc1c(OCC(F)(F)F)ccnc1CS(=O)c1nc2ccccc2[nH]1` (stereo not drawn), the results for the “NF-kB SEAP reporter activity” value in experiment [2] (setting [7]) and in experiment [2] (setting [8]) were 0.849 and 0.918, respectively.
Regarding `Cc1c(OCC(F)(F)F)ccnc1CS(=O)c1nc2ccccc2[nH]1` (stereo not drawn) (library stock concentration (final ~1000-fold dilution): 10 mM), the “NF-kB SEAP reporter activity” value in experiment [1] (agonist: LPS (TLR4) 0.1 ug/mL) was 0.895; in experiment [1] (setting [4]), 0.905; in experiment [1] (setting [5]) it was 0.711; in experiment [1] (setting [6]), 0.795.
